B1: CPEB3 Ribozyme (parent)
chain: UAACAGGGGGCCACAGCAGAAGCGUUCACGUCGCAGCCCCUGUCAGAUUCUGGUGAAUCUGCGAAUUCUGCUGUAUAUCUC

Read counts are not given, so values of variants with three or more changes are uncertain.

The variants in the data set derive from B1. Briefly: self-cleavage, relative activity (ratio to wild type); higher = more cleavage; in vitro, sequencing. The procedure, abridged:
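For each CPEB3 ribozyme variant, relative activity is its cleaved/total read fraction divided by the unmutated ribozyme's. Barcoded error-prone PCR libraries were transcribed by T7 RNA polymerase (5 hours, 37°C) and held in DNase I for 15 min before an EDTA stop, with cleavage occurring throughout. Template-switching reverse transcription and Illumina sequencing were used to read the RNAs. A 5-read minimum applied, and results are the mean of three batches.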
For the variant A5G G63A U67A U72G, the self-cleavage amounted to 0.2.
The figure for A5G G6A U66C C81U is 0.08; for A5G U25C A28G U80C it is 0.12.
Take A5G G22U A47U A64G U74C: the self-cleavage amounted to 0.02.
A5G G9A A18C A35U A64G G70U: the self-cleavage turned out to be 0.05.
A5G G6A C27U U41A: the self-cleavage came out at 0.1.
As for A5G G24A U60C A77G, the self-cleavage is 0.06.
With A5G G63A U74C the figure was 0.92; with A5G G24A U41C A57G G70A U80C, 0.11.
With A5G U26C U41A G46A A64G, the self-cleavage came to 0.35.
Turning to A5G G7C A28U U69C, the self-cleavage was found to be 0.23.
With A5G C44U U60C the figure was 0.71.
A5G G7U A35G A56U: the self-cleavage was 0.13.
On to A5G U26A A57U, for which the self-cleavage amounted to 0.13.
As to A5G G6C A21G U60C U78C, the self-cleavage came to 0.09.
Consider A5G G33A U49C C68A, for which the self-cleavage is 0.1.
On to A5G U25G A28C U41A U48C U69C U72C, for which the self-cleavage stood at 0.49.
As for A5G G9A C23U G46U U80C, the self-cleavage turned out to be 0.04.
Turning to A5G G55U U76C, the self-cleavage is 0.41.
For A5G U25C A57G, the self-cleavage came out at 0.37.
On to A5G G7U C12U A18U U67C, for which the self-cleavage was determined as 0.06.
With A5G G30A U51A, the self-cleavage was 0.31.
Turning to A5G U25C C62U U80C, the self-cleavage is 0.31.
On to A5G G8U U41C C44G, for which the self-cleavage came to 0.06.
With A5G G55A A56U A64G the figure was 0.23.
As for A5G G7U G19U U26C U72C, the self-cleavage was found to be 0.2.
With A5G G10U A28U C38U A77U, the self-cleavage was determined as 0.42.
Turning to A5G G33A C38U U41A, the self-cleavage worked out at 0.47.
Consider A5G G36A U67C U76A, for which the self-cleavage stood at 0.57.
For the variant A5G U25C C34U U60C A65G, the self-cleavage is 0.24.
With A5G G8A A13C A28G U72C the figure was 0.08; with A5G G6U A20G U78C, 0.14.
With A5G G9U A18G U76C U80C the figure was 0.07; with A5G G33U U41C A64G, 0.1; with A5G U26A C34U U51C U74C, 0.25.
As to A5G G9C A56G A64G, the self-cleavage came out at 0.23.
With A5G G6A A21G A56G U69C the figure was 0.08; with A5G G10A U51C U78C, 0.12.
With A5G G8A A15U U31C U54A A56C U74C the figure was 0.08.
With A5G G16A U49C U72G the figure was 0.14.
For the variant A5G U25C A28G G33U U60C A64C, the self-cleavage stood at 0.06.
Regarding A5G G8A A18G A21G A45C G70U A75G, the self-cleavage was 0.05.
For the variant A5G G24A C27G A57G U69C, the self-cleavage was 0.08.
With A5G U26C U54A A65G U67C the figure was 0.22; with A5G G8A U41C U48C U51G U60A U69A, 0.19.
For the variant A5G G30A A64U U67C U72G, the self-cleavage is 0.15.
Take A5G G63U U72C: the self-cleavage was found to be 0.92.
For A5G U26A G46U, the self-cleavage is 0.42.
Turning to A5G G33A A64U, the self-cleavage stood at 0.11.
As to A5G G7U G9C G16C U43A U66C, the self-cleavage turned out to be 0.23.
On to A5G G9A G33A U43A A45U U60A A75G, for which the self-cleavage came out at 0.05.
Regarding A5G G9A U26C U54C, the self-cleavage was 0.37.
On to A5G U26G U49C C50U U54C U76C, for which the self-cleavage stood at 0.1.
In the case of A5G G7C G19C A45G U60C, the self-cleavage stood at 0.07.
Regarding A5G U25C U67C, the self-cleavage was 0.09.
Regarding A5G G22U U31A G63A, the self-cleavage is 0.18.
In the case of A5G G6A U60C U78C, the self-cleavage came out at 0.37.
With A5G G7A A18U G36U the figure was 0.04; with A5G G10C U26C, 0.5; with A5G G63A A65U U72C, 0.37.
Take A5G U25C U31C A77U: the self-cleavage was 0.17.
For A5G G10A C17U U60C C79A, the self-cleavage worked out at 0.15.
A5G G8A A28U U54C U78A: the self-cleavage was 0.47.
Take A5G G8A U49A G53A: the self-cleavage was 0.08.
Consider A5G G7A C23U A35U, for which the self-cleavage amounted to 0.07.
With A5G G24A U41A U74C the figure was 0.37; with A5G G10A C27U C62G G70C, 0.04.
Turning to A5G U25C U54A, the self-cleavage was found to be 0.14.
Regarding A5G G10C U49C A56G A57G, the self-cleavage is 0.49.
For the variant A5G G9U C37U A56G U60A, the self-cleavage is 0.06.
The figure for A5G C44U U58A U78C U80C is 0.15; for A5G U26C U54A G63A U78C it is 0.14; for A5G U25C C27U A35G A45G A64G it is 0.15.
A5G G6A U69A: the self-cleavage amounted to 0.09.
With A5G G10U A18G C37A the figure was 0.1; with A5G C50A A57G U66A, 0.27.
Regarding A5G G7C A20C U43A A56G, the self-cleavage stood at 0.
For the variant A5G G7A U41C C44G U51C U78C, the self-cleavage was determined as 0.07.
With A5G G9U U25C U49C U78C the figure was 0.06.
With A5G G8A A15G C39G U43C U60C the figure was 0.05.
With A5G G8A A13U C38G, the self-cleavage worked out at 0.34.
Consider A5G G16U A20U U31C C40U G53A U67C, for which the self-cleavage turned out to be 0.
Consider A5G G10A A47G, for which the self-cleavage is 0.38.
For A5G G7U A15U U48A C81U, the self-cleavage was found to be 0.06.
The figure for A5G U26A C37A U51C U54G is 0.08; for A5G U25A A35U U49C U51C it is 0.28; for A5G G9A A18U A35U G63U G70A it is 0.07.
In the case of A5G G8U A15U A18G A21G C23A U69A, the self-cleavage turned out to be 0.13.
The figure for A5G G9A A13G U41A C44A is 0.07; for A5G G52A C62U it is 0.27; for A5G G16U A20G C62U U72C A77G it is 0.
For the variant A5G G10A U26G U54C U58C U66C, the self-cleavage came to 0.05.
In the case of A5G G10A A13U U51C G61C, the self-cleavage worked out at 0.08.
On to A5G G55U U60C U69A, for which the self-cleavage worked out at 0.17.
Consider A5G U26C U43C A45G U60C, for which the self-cleavage is 0.64.
As for A5G G9A A21G U41A U43C U69C, the self-cleavage is 0.13.
On to A5G G53A A57U U74C, for which the self-cleavage came out at 1.04.
As to A5G U26C A64U U69C, the self-cleavage was 0.21.
Take A5G U25C A57G U60C: the self-cleavage came out at 0.26.
In the case of A5G U25C U26C A28U U41G, the self-cleavage was 0.42.
As for A5G U26C C39G U41A U67A, the self-cleavage worked out at 0.06.
The figure for A5G U26C U74A is 0.35; for A5G G30A U54C A56U U72G A77U it is 0.01.
A5G G10A A20G A35U C62U: the self-cleavage amounted to 0.1.
In the case of A5G U25A U51A U58C, the self-cleavage came out at 0.2.
As for A5G G8U A35U U41C A56G U69C, the self-cleavage was found to be 0.19.
A5G G8U U54A: the self-cleavage came out at 0.74.
For the variant A5G G16A A21G U25A U51C U58C U60A, the self-cleavage is 0.08.
The figure for A5G U26A A28G A35G C62A is 0.11.
The figure for A5G G16A A20G U31C U60A is 0.01.
Take A5G G6A A13U A15C A56G U60G U78A: the self-cleavage came to 0.05.
On to A5G G52A U60C, for which the self-cleavage was determined as 0.45.
Regarding A5G G8A A13G C40U U41A A57G C81U, the self-cleavage came out at 0.04.
With A5G G8A A28G U48C A56G U60A U69C, the self-cleavage stood at 0.08.
Take A5G G9U A35U U41G: the self-cleavage was determined as 0.47.
With A5G G9U U41A U66C U72C the figure was 0.29; with A5G U26A A65U, 0.12; with A5G G22A U49C U54G U74A, 0.19.
For the variant A5G U25C U60C U78C, the self-cleavage was 0.06.
The figure for A5G G8A G10A A57G U66C U72A U78C is 0.04; for A5G U25A A35G U41C U48C A65U it is 0.04.
Take A5G G6U U49C U51A U80C: the self-cleavage was 1.
With A5G G36U A47G A56G A64C U80A the figure was 0.1; with A5G U25C A35G U51A, 0.18.
On to A5G G8A A45G, for which the self-cleavage was found to be 0.29.
As for A5G U25C G42A A65G U72G, the self-cleavage was found to be 0.22.
For A5G G7A U25G C40U U80C, the self-cleavage was 0.34.
For A5G G19A U26A A45U U51C, the self-cleavage is 0.07.
A5G G30A U31C A64U: the self-cleavage is 0.22.
For A5G G6A A28U, the self-cleavage amounted to 0.33.
With A5G G10C A18G A20U U49A A57U U69C the figure was 0.12; with A5G U25C U31A A45U U54G U80C, 0.05.
For the variant A5G G9A U49C G55U U78C, the self-cleavage turned out to be 0.08.
The figure for A5G G16A A18G U41G U66C is 0.39; for A5G G9U A28G A45U U51G it is 0.06.
With A5G G6A A57G the figure was 0.1.
For the variant A5G G8U A35G U43C A56G, the self-cleavage amounted to 0.35.
As for A5G G33A U51A U67A A75U, the self-cleavage stood at 0.09.
For A5G G9U U26A U48C A56G U60A U72C, the self-cleavage amounted to 0.05.
As for A5G G9A A47G U69C C71U, the self-cleavage was found to be 0.22.
Regarding A5G G9U A21G A35G A47G U80A, the self-cleavage came to 0.17.
With A5G G6U C37A U54C C71U U72C the figure was 0.05; with A5G G6A A15U G42A U51A U72C, 0.
In the case of A5G G63C U80C, the self-cleavage came to 0.71.
For the variant A5G G36A U54C, the self-cleavage came out at 0.4.
With A5G G8A A35C U58C U69C U78A, the self-cleavage is 0.2.
On to A5G G9U A56G, for which the self-cleavage was found to be 0.08.
Take A5G G22A A64G: the self-cleavage amounted to 0.18.
Consider A5G G46A U54C U78A U80G, for which the self-cleavage amounted to 0.11.
Consider A5G G6A A28G G53A, for which the self-cleavage was 0.08.
Turning to A5G U25C A56U, the self-cleavage worked out at 0.31.
With A5G G8A G36A U49C C68U the figure was 0.05; with A5G G7U A21G U60C A77G, 0.02; with A5G G9A A21G U69C C71U U80A, 0.23.
Consider A5G G7A A13G, for which the self-cleavage was 0.58.
The figure for A5G G30A A56G is 0.18.
With A5G U25C U48C A64U the figure was 0.13; with A5G U25C U31A U67C U69C A77G, 0.13; with A5G G24U A45U U60G U69A U74G, 0.08.
For A5G G24A U26A A56G U80C, the self-cleavage was found to be 0.35.
Consider A5G G7C A18G U25C U26A A64G, for which the self-cleavage is 0.08.
For the variant A5G U25C G46U U69C, the self-cleavage was found to be 0.23.
Turning to A5G G9A G55U, the self-cleavage worked out at 0.4.
The figure for A5G G6U U49C U51A A57G G70A is 0.07; for A5G G52U A57U it is 0.5.
For the variant A5G G9C C40A U69A, the self-cleavage is 0.27.
In the case of A5G U25C U69G U72A, the self-cleavage worked out at 0.09.

Values taken from the RNAGym collection of RNA variant scans (doi:10.1093/nar/gkz1192).
